# Residue numbers refer to the chain shown, from its start. In names and notes the source's numbering stands. ± gives the standard deviation of the averaged measurements. Laboratory Escherichia coli strains with one amino-acid change in an essential protein, pooled on minimal glucose agar with carbenicillin or gentamicin at twice the control MIC (plus kanamycin and chloramphenicol for the plasmids), 48 h. Fold change of barcode share against drug-free plates; higher = less susceptible. Active = above 20 in both replicates (the paper's putatively resistant). '<' = one read or none on drug, '>' = one read or none on a drug-free plate. Shares are relative, so most strains fall below 1 when a few take over. Listed are strains with at least 15 reads on both drug-free plates, and hits; most hits rest on fewer reference reads. Replicate rank correlation about 0.5. Edits are read from barcodes.
# B1: nadA I259A (protein)
# chain: MSVMFDPDTAIYPFPPKPTPLSIDEKAYYREKIKRLLKERNAVMVAHYYTDPEIQQLAEETGGCISDSLEMARFGAKHPASTLLVAGVRFMGETAKILSPEKTILMPTLQAECSLDLGCPVEEFNAFCDAHPDRTVVVYANTSAAVKARADWVVTSSIAVELIDHLDSLGEKIIWAPDKHLGRYVQKQTGGDILCWQGACIVHDEFKTQALTRLQEEYPDAAILVHPESPQAIVDMADAVGSTSQLIAAAKTLPHQRLAVATDRGIFYKMQQAVPDKELLEAPTAGEGATCRSCAHCPWMAMNGLQAIAEALEQEGSNHEVHVDERLRERALVPLNRMLDFAATLRG
# B2: nadA V260A (protein)
# chain: B1 chain with A259I, V260A
# B3: nadA M270A (protein)
# chain: B1 chain with A259I, M270A
# B4: asnS V273A (protein)
# chain: MSVVPVADVLQGRVAVDSEVTVRGWVRTRRDSKAGISFLAVYDGSCFDPVQAVINNSLPNYNEDVLRLTTGCSVIVTGKVVASPGQGQQFEIQASKVEVAGWVEDPDTYPMAAKRHSIEYLREVAHLRPRTNLIGAVARVRHTLAQALHRFFNEQGFFWVSTPLITASDTEGAGEMFRVSTLDLENLPRNDQGKVDFDKDFFGKESFLTVSGQLNGETYACALSKIYTFGPTFRAENSNTSRHLAEFWMLEPEVAFANLNDIAGLAEAMLKYAFKAVLEERADDMKFFAERVDKDAVSRLERFIEADFAQVDYTDAVTILENCGRKFENPVYWGVDLSSEHERYLAEEHFKAPVVVKNYPKDIKAFYMRLNEDGKTVAAMDVLAPGIGEIIGGSQREERLDVLDERMLEMGLNKEDYWWYRDLRRYGTVPHSGFGLGFERLIAYVTGVQNVRDVIPFPRTPRNASF
# B5: asnS V273W (protein)
# chain: B4 chain with A273W
# B6: asnS V273Q (protein)
# chain: B4 chain with A273Q
# B7: asnS F274A (protein)
# chain: B4 chain with A273V, F274A
# B8: asnS F274W (protein)
# chain: B4 chain with A273V, F274W
# B9: nadD I30A (protein)
# chain: MKSLQALFGGTFDPVHYGHLKPVETLANLAGLTRVTIIPNNVPPHRPQPEANSVQRKHMLELAIADKPLFTLDERELKRNAPSYTAQTLKEWRQEQGPDVPLAFIIGQDSLLTFPTWYEYETILDNAHLIVCRRPGYPLEMAQPQYQQWLEDHLTHNPEDLHLQPAGKIYLAETPWFNISATIIRERLQNGESCEDLLPEPVLTYINQQGLYR
# B10: nadD I30W (protein)
# chain: B9 chain with A30W
# B11: nadD I30Q (protein)
# chain: B9 chain with A30Q
# B12: nadD I30D (protein)
# chain: B9 chain with A30D
# B13: nadD I30P (protein)
# chain: B9 chain with A30P
# B14: asnS L383A (protein)
# chain: B4 chain with A273V, L383A
# Molecular target: Escherichia coli (laboratory strain)
# Test: barcode share on antibiotic plates over drug-free plates; higher = less susceptible
# Details: antibiotic: carbenicillin; 2× MIC (3.1 µg/mL)
# Description: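 A pool of E. coli strains, each edited to carry one amino-acid change in an essential protein, was grown for 48 h on minimal glucose agar with or without antibiotic; strain barcodes were sequenced; mean of two replicates.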
row,Protein,fold change of barcode share
1,B1,0.951 ± 0.34
2,B2,0.635 ± 0.068
3,B3,0.584 ± 0.2
4,B4,0.326 ± 0.031
5,B5,0.354 ± 0.15
6,B6,0.262 ± 0.098
7,B7,0.2 ± 0.037
8,B8,0.294 ± 0.035
9,B9,0.405 ± 0.052
10,B10,0.181 ± 0.046
11,B11,0.391 ± 0.1
12,B12,0.33 ± 0.053
13,B13,0.256 ± 0.015
14,B14,0.866 ± 0.69

# Same assay, conditions: antibiotic: gentamicin; 2× MIC (MIC 0.45 µg/mL)
row,Protein,fold change of barcode share
1,B1,0.182 ± 0.23
2,B2,0.0606 ± 0.07
3,B3,0.108 ± 0.081
4,B4,< 0.00166
5,B5,< 0.00441
6,B6,0.0102 ± 0.0006
7,B7,0.0168 ± 0.02
8,B8,< 0.00258
9,B9,< 0.00799
10,B10,< 0.00361
11,B11,0.0183 ± 0.014
12,B12,< 0.00748
13,B13,< 0.00509
14,B14,0.00585 ± 0.0037
